# Some of the results follow.
# Key:
# Assay in all cases: glycan array binding signal (z-score within array); higher = stronger binding
# Conditions in all cases: glycan notation: IUPAC condensed, linker removed
# [1] = biological target: Neu5Ac(a2-3)Gal(b1-4)GlcNAc(b1-6)GalNAc
# How it was run: (§1)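 Glycan array data were curated from 3228 arrays in the Consortium for Functional Glycomics database and kept only where the protein sequence was available. Glycan names were converted to IUPAC-condensed notation, and columns mapping to the same glycan were averaged. The binding signal is a within-array Z-score, averaged across arrays of the same protein sequence at different concentrations or buffers and across linkers. Negative Z-scores can be read as non-binding.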
# [2] = biological target: Neu5Ac(a2-3)Gal(b1-4)GlcNAc(b1-6)[Gal(b1-3)]GalNAc
# How it was run: as §1
# [3] = biological target: Neu5Ac(a2-3)Gal(b1-4)GlcNAc(b1-6)[Neu5Ac(a2-3)Gal(b1-3)]GalNAc
# How it was run: as §1
# [4] = biological target: Neu5Ac(a2-3)Gal(b1-4)GlcNAc6S
# How it was run: as §1
# [5] = biological target: Neu5Ac(a2-3)Gal(b1-4)[Fuc(a1-3)]GlcNAc
# How it was run: as §1
# [6] = biological target: Neu5Ac(a2-3)Gal(b1-4)[Fuc(a1-3)]GlcNAc(b1-2)Man
# How it was run: as §1
# [7] = biological target: Neu5Ac(a2-3)Gal(b1-4)[Fuc(a1-3)]GlcNAc(b1-3)Gal
# How it was run: as §1
# [8] = biological target: Neu5Ac(a2-3)Gal(b1-4)[Fuc(a1-3)]GlcNAc(b1-3)Gal(b1-4)GlcNAc
# How it was run: as §1
# [9] = biological target: Neu5Ac(a2-3)Gal(b1-4)[Fuc(a1-3)]GlcNAc(b1-3)Gal(b1-4)[Fuc(a1-3)]GlcNAc(b1-3)Gal(b1-4)[Fuc(a1-3)]GlcNAc
# How it was run: as §1
# [10] = biological target: Neu5Ac(a2-3)Gal(b1-4)[Fuc(a1-3)]GlcNAc(b1-3)GalNAc
# How it was run: as §1
# [11] = biological target: Neu5Ac(a2-3)Gal(b1-4)[Fuc(a1-3)]GlcNAc(b1-6)[Gal(b1-3)]GalNAc
# How it was run: as §1
# [12] = biological target: Neu5Ac(a2-3)Gal(b1-4)[Fuc(a1-3)]GlcNAc(b1-6)[Neu5Ac(a2-3)Gal(b1-3)]GalNAc
# How it was run: as §1
# [13] = biological target: Neu5Ac(a2-3)Gal(b1-4)[Fuc(a1-3)]GlcNAc6S
# How it was run: as §1
# [14] = biological target: Neu5Ac(a2-3)Gal6S(b1-4)GlcNAc
# How it was run: as §1
# [15] = biological target: Neu5Ac(a2-3)Gal6S(b1-4)[Fuc(a1-3)]GlcNAc
# How it was run: as §1
# Neu5Ac(a2-3)GalNAc = biological target: Neu5Ac(a2-3)GalNAc
# How it was run: as §1
# [16] = biological target: Neu5Ac(a2-3)GalNAc(b1-4)GlcNAc
# How it was run: as §1
# [17] = biological target: Neu5Ac(a2-3)[GalNAc(b1-4)]Gal(b1-4)Glc
# How it was run: as §1
# [18] = biological target: Neu5Ac(a2-3)[GalNAc(b1-4)]Gal(b1-4)GlcNAc
# How it was run: as §1
# [19] = biological target: Neu5Ac(a2-3)[GalNAc(b1-4)]Gal(b1-4)GlcNAc(b1-3)GalNAc
# How it was run: as §1
# [20] = biological target: Neu5Ac(a2-3)[Neu5Ac(a2-6)]GalNAc
# How it was run: as §1
# Neu5Ac(a2-6)Gal = biological target: Neu5Ac(a2-6)Gal
# How it was run: as §1
# [21] = biological target: Neu5Ac(a2-6)Gal(b1-3)GlcNAc(b1-3)[Gal(b1-4)GlcNAc(b1-6)]Gal(b1-4)Glc
# How it was run: as §1
# Neu5Ac(a2-6)Gal(b1-4)Glc = biological target: Neu5Ac(a2-6)Gal(b1-4)Glc
# How it was run: as §1
# [22] = biological target: Neu5Ac(a2-6)Gal(b1-4)GlcNAc
# How it was run: as §1
# [23] = biological target: Neu5Ac(a2-6)Gal(b1-4)GlcNAc(b1-2)Man
# How it was run: as §1
# [24] = biological target: Neu5Ac(a2-6)Gal(b1-4)GlcNAc(b1-2)Man(a1-3)Man(b1-4)GlcNAc(b1-4)GlcNAc
# How it was run: as §1
# [25] = biological target: Neu5Ac(a2-6)Gal(b1-4)GlcNAc(b1-2)Man(a1-3)[Gal(b1-4)GlcNAc(b1-2)Man(a1-6)]Man(b1-4)GlcNAc(b1-4)GlcNAc
# How it was run: as §1
# [26] = biological target: Neu5Ac(a2-6)Gal(b1-4)GlcNAc(b1-2)Man(a1-3)[GlcNAc(b1-2)Man(a1-6)]Man(b1-4)GlcNAc(b1-4)GlcNAc
# How it was run: as §1
# [27] = biological target: Neu5Ac(a2-6)Gal(b1-4)GlcNAc(b1-2)Man(a1-3)[GlcNAc(b1-4)][Neu5Ac(a2-6)Gal(b1-4)GlcNAc(b1-2)Man(a1-6)]Man(b1-4)GlcNAc(b1-4)GlcNAc
# How it was run: as §1
# [28] = biological target: Neu5Ac(a2-6)Gal(b1-4)GlcNAc(b1-2)Man(a1-3)[Man(a1-6)]Man(b1-4)GlcNAc(b1-4)GlcNAc
# How it was run: as §1
# [29] = biological target: Neu5Ac(a2-6)Gal(b1-4)GlcNAc(b1-2)Man(a1-3)[Neu5Ac(a2-3)Gal(b1-4)GlcNAc(b1-2)Man(a1-6)]Man(b1-4)GlcNAc(b1-4)GlcNAc
# How it was run: as §1
# [30] = biological target: Neu5Ac(a2-6)Gal(b1-4)GlcNAc(b1-2)Man(a1-3)[Neu5Ac(a2-6)Gal(b1-4)GlcNAc(b1-2)Man(a1-6)]Man(b1-4)GlcNAc(b1-4)GlcNAc
# How it was run: as §1
# [31] = biological target: Neu5Ac(a2-6)Gal(b1-4)GlcNAc(b1-2)Man(a1-3)[Neu5Ac(a2-6)Gal(b1-4)GlcNAc(b1-2)Man(a1-6)]Man(b1-4)GlcNAc(b1-4)[Fuc(a1-6)]GlcNAc
# How it was run: as §1
# [32] = biological target: Neu5Ac(a2-6)Gal(b1-4)GlcNAc(b1-2)Man(a1-6)Man(b1-4)GlcNAc(b1-4)GlcNAc
# How it was run: as §1
# [33] = biological target: Neu5Ac(a2-6)Gal(b1-4)GlcNAc(b1-2)Man(a1-6)[Gal(b1-4)GlcNAc(b1-2)Man(a1-3)]Man(b1-4)GlcNAc(b1-4)GlcNAc
# How it was run: as §1
# [34] = biological target: Neu5Ac(a2-6)Gal(b1-4)GlcNAc(b1-2)Man(a1-6)[GlcNAc(b1-2)Man(a1-3)]Man(b1-4)GlcNAc(b1-4)GlcNAc
# How it was run: as §1
# [35] = biological target: Neu5Ac(a2-6)Gal(b1-4)GlcNAc(b1-2)Man(a1-6)[Man(a1-3)]Man(b1-4)GlcNAc(b1-4)GlcNAc
# How it was run: as §1
# [36] = biological target: Neu5Ac(a2-6)Gal(b1-4)GlcNAc(b1-2)[Neu5Ac(a2-6)Gal(b1-4)GlcNAc(b1-4)]Man(a1-3)[GlcNAc(b1-4)][Neu5Ac(a2-6)Gal(b1-4)GlcNAc(b1-2)[Neu5Ac(a2-6)Gal(b1-4)GlcNAc(b1-6)]Man(a1-6)]Man(b1-4)GlcNAc(b1-4)GlcNAc
# How it was run: as §1
# [37] = biological target: Neu5Ac(a2-6)Gal(b1-4)GlcNAc(b1-2)[Neu5Ac(a2-6)Gal(b1-4)GlcNAc(b1-4)]Man(a1-3)[GlcNAc(b1-4)][Neu5Ac(a2-6)Gal(b1-4)GlcNAc(b1-4)Man(a1-6)]Man(b1-4)GlcNAc(b1-4)GlcNAc
# How it was run: as §1
# [38] = biological target: Neu5Ac(a2-6)Gal(b1-4)GlcNAc(b1-2)[Neu5Ac(a2-6)Gal(b1-4)GlcNAc(b1-6)]Man(a1-6)[Neu5Ac(a2-6)Gal(b1-4)GlcNAc(b1-2)Man(a1-3)][GlcNAc(b1-4)]Man(b1-4)GlcNAc(b1-4)GlcNAc
# How it was run: as §1
# [39] = biological target: Neu5Ac(a2-6)Gal(b1-4)GlcNAc(b1-3)Gal(b1-3)GlcNAc
# How it was run: as §1
# [40] = biological target: Neu5Ac(a2-6)Gal(b1-4)GlcNAc(b1-3)Gal(b1-4)GlcNAc
# How it was run: as §1
# [41] = biological target: Neu5Ac(a2-6)Gal(b1-4)GlcNAc(b1-3)Gal(b1-4)GlcNAc(b1-2)Man(a1-3)[Neu5Ac(a2-6)Gal(b1-4)GlcNAc(b1-3)Gal(b1-4)GlcNAc(b1-2)Man(a1-6)]GalNAc
# How it was run: as §1
# [42] = biological target: Neu5Ac(a2-6)Gal(b1-4)GlcNAc(b1-3)Gal(b1-4)GlcNAc(b1-3)Gal(b1-4)GlcNAc
# How it was run: as §1
binder,measurement,setting,value
AidA (Burkholderia cenocepacia) (protein) MSRVTDVLVSFDTETILKKYPNPSKNPAAPTLIDWRYVYMVTNQDNVISGQAGGELDLKAQVGDLIRWRETSLSLGFENQVVFYKFIGNVGNDLISTPTPRVAEASIPVPNTSKPEVPTCQKVANYYWSSECLKVGRVTYHFQFQIIDRNCQSQGCFSWDPFISIHN,glycan array binding signal (z-score),[1],-0.721
same,glycan array binding signal (z-score),[2],-0.586
same,glycan array binding signal (z-score),[3],-0.108
same,glycan array binding signal (z-score),[4],-0.261
same,glycan array binding signal (z-score),[5],0.589
same,glycan array binding signal (z-score),[6],-0.076
same,glycan array binding signal (z-score),[7],-0.027
same,glycan array binding signal (z-score),[8],0.479
same,glycan array binding signal (z-score),[9],0.2
same,glycan array binding signal (z-score),[10],1.86
same,glycan array binding signal (z-score),[11],-0.213
same,glycan array binding signal (z-score),[12],0.593
same,glycan array binding signal (z-score),[13],-0.124
same,glycan array binding signal (z-score),[14],-0.261
same,glycan array binding signal (z-score),[15],-0.056
same,glycan array binding signal (z-score),Neu5Ac(a2-3)GalNAc,0.603
same,glycan array binding signal (z-score),[16],-0.134
same,glycan array binding signal (z-score),[17],0.03
same,glycan array binding signal (z-score),[18],-0.388
same,glycan array binding signal (z-score),[19],-0.87
same,glycan array binding signal (z-score),[20],-0.269
same,glycan array binding signal (z-score),Neu5Ac(a2-6)Gal,-0.346
same,glycan array binding signal (z-score),[21],0.097
same,glycan array binding signal (z-score),Neu5Ac(a2-6)Gal(b1-4)Glc,-0.136
same,glycan array binding signal (z-score),[22],-0.035
same,glycan array binding signal (z-score),[23],0.236
same,glycan array binding signal (z-score),[24],-0.123
same,glycan array binding signal (z-score),[25],-0.012
same,glycan array binding signal (z-score),[26],-0.443
same,glycan array binding signal (z-score),[27],-0.426
same,glycan array binding signal (z-score),[28],-0.961
same,glycan array binding signal (z-score),[29],-0.45
same,glycan array binding signal (z-score),[30],0.223
same,glycan array binding signal (z-score),[31],0.19
same,glycan array binding signal (z-score),[32],-0.428
same,glycan array binding signal (z-score),[33],0.622
same,glycan array binding signal (z-score),[34],-0.384
same,glycan array binding signal (z-score),[35],0.17
same,glycan array binding signal (z-score),[36],-0.863
same,glycan array binding signal (z-score),[37],-0.014
same,glycan array binding signal (z-score),[38],-0.793
same,glycan array binding signal (z-score),[39],-0.665
same,glycan array binding signal (z-score),[40],-0.726
same,glycan array binding signal (z-score),[41],0.282
same,glycan array binding signal (z-score),[42],-0.437
